Measurements published in the supplement of paper PMC3334620.
Whole data set: some 33,000 sequences, median “E-score (-0.5 to 0.5)” near -0.017, cut for the highest 2% near 0.3. This is one part of the list.

Target: T1, Sut1 (UniProt P53032)
T1 sequence: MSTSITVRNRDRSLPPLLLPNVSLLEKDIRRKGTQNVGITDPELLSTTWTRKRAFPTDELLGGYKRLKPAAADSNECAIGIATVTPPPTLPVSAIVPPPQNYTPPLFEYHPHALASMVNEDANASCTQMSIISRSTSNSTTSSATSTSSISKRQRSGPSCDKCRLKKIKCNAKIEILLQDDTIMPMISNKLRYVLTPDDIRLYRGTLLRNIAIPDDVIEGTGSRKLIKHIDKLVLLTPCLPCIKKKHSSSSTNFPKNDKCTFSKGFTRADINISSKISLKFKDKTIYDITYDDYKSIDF
Assay: PBM E-score (8-mer binding enrichment) (E-score (-0.5 to 0.5)); higher = stronger / more preferred TF binding; most listed sequences are background and not binding sites
Conditions: protein concentration: 200 nM; construct: GST-full length
In short: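 GST-tagged yeast TFs (full-length or DNA-binding domain) were made by PURExpress in vitro transcription/translation and applied at about 100-200 nM to universal all-10-mer Agilent arrays. The arrays were made double-stranded by primer extension, on fresh or once-stripped slides. Bound protein was detected with fluorescent anti-GST, and scans were normalised with masliner. Each ungapped eight-base word, pooled with its reverse complement, received an E-score (modified Wilcoxon-Mann-Whitney statistic) from the Universal PBM Analysis Suite.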

| Sequence | PBM E-score |
| --- | --- |
| GATTTTTA | 0.164 |
| CCGGCGTA | 0.0295 |
| GATAGCCC | -0.132 |
| AACGTGCA | -0.0602 |
| CATCTGGA | -0.15 |
| ACGACTCT | -0.091 |
| CGATCACC | 0.00494 |
| CTGCGAAA | -0.0164 |
| CTGTAGTA | 0.175 |
| AGCTGACT | 0.0365 |
| AGCACTAG | -0.0676 |
| GCAGATAC | -0.0367 |
| CTGATATA | 0.126 |
| GTTCATCA | 0.0824 |
| CCGGGTAA | 0.136 |
| GACTACCA | 0.0405 |
| CGAGCCCC | -0.0719 |
| GAGGCTGC | -0.163 |
| GAAGAATC | 0.0983 |
| CTGTATCA | -0.196 |
| AGTGGGAA | 0.0467 |
| ATTGTTGG | 0.286 |
| CAGTTCGA | 0.00658 |
| CACTCTGA | -0.165 |
| CCAATAGA | -0.0393 |

| Sequence | PBM E-score |
| --- | --- |
| AACCGTGC | 0.0224 |
| ACATTCTA | 0.0618 |
| CGATACCA | -0.0261 |
| GGGTATAA | 0.0427 |
| CTGACTAA | 0.182 |
| CGGTAGCC | 0.00984 |
| GGATATCC | 0.168 |
| AGACGACT | -0.0824 |
| GAATATCC | 0.0832 |
| CACATTAG | -0.0351 |
| ATTGCTAA | 0.142 |
| CGGAACTA | 0.229 |
| AGCAGTAG | -0.205 |
| CCGCCTAG | -0.166 |
| AATGGTCC | 0.0931 |
| GTAGCTAC | -0.0627 |
| AGACCAGA | -0.0941 |
| AAGCGCAA | -0.0186 |
| AGGGAGGA | -0.319 |
| ACTGTGGA | -0.0692 |
| GATCCGCC | -0.0664 |
| GTCGAGCA | -0.255 |
| CGCCTGAC | -0.036 |
| ATTCCCTG | -0.109 |
| ATCTGCGA | -0.209 |

| Sequence | PBM E-score |
| --- | --- |
| CCCGATCG | -0.0909 |
| GAACTGCC | -0.177 |
| ATGGAGTC | 0.0281 |
| GACCGATA | -0.00646 |
| CGGTGGAA | 0.0654 |
| AGGGAAAG | -0.176 |
| AACTTAAG | 0.132 |
| CAAGTCAG | -0.0539 |
| GAAGATAA | 0.214 |
| ACGCAACT | 0.104 |
| CTTGGATC | 0.00255 |
| ACAAGAGA | -0.0728 |
| AATGACAG | 0.00358 |
| GACTTGCC | -0.27 |
| ATACATTC | 0.11 |
| CTAGGCAA | -0.15 |
| CATCACGA | -0.198 |
| CTCTGTCC | -0.104 |
| CCCCTGCA | -0.29 |
| GACATCAC | -0.0298 |
| CAGTGGGC | -0.194 |
| CAATGGCC | -0.182 |
| CGGGTGCA | -0.0548 |
| GTAACTAA | 0.144 |
| AATGACTC | -0.0398 |

| Sequence | PBM E-score |
| --- | --- |
| CATTGGAG | -0.0942 |
| CAAACGCA | -0.227 |
| CGGTGCTA | -0.0351 |
| CATCTAAC | 0.00013 |
| AGCCCGGA | 0.341 |
| CATATTGA | 0.0287 |
| ACGGACCC | 0.0412 |
| AGAAAACT | 0.0795 |
| GCGAACCC | -0.0462 |
| ACGTAAAT | 0.0259 |
| AGAGACAC | -0.0557 |
| CTGGGTCC | -0.192 |
| CCATGTCC | -0.051 |
| CGAACGTA | 0.0459 |
| GGCCGCAA | -0.262 |
| AATGTCGT | 0.0765 |
| AGCGCGTC | -0.218 |
| ACACTAAA | 0.243 |
| GCAGCACC | 0.0294 |
| CGTTAGAA | 0.111 |
| ACTTCCTA | 0.0153 |
| GCAATTGC | -0.0673 |
| AAAGTCTC | -0.0767 |
| TGATTTAA | 0.3 |
| CCACGTGA | -0.253 |

| Sequence | PBM E-score |
| --- | --- |
| ACAGCGAG | -0.145 |
| CAACAAGC | -0.0335 |
| ACCGAAAA | 0.196 |
| ATATAGGC | 0.0982 |
| GGGTGCTA | -0.132 |
| GGGGCTAA | -0.208 |
| AACCTTAA | 0.272 |
| GTCAGCCA | -0.157 |
| AGTGCTAA | 0.0673 |
| TACCTCCA | -0.0864 |
| ACACTACC | -0.23 |
| GCGCGGTA | -0.00738 |
| AGGGATTG | -0.0188 |
| CCTATTTC | -0.00185 |
| CGTACTCC | 0.348 |
| CCTGTATA | 0.0144 |
| ACATTAAA | 0.259 |
| ATTTGGAG | -0.031 |
| GAGACGTA | -0.0178 |
| ACCCTATC | 0.0201 |
| TCTGAGCA | -0.0691 |
| AAGCTTAG | 0.0746 |
| CGACAGGA | 0.0329 |
| AGTCATAT | 0.108 |
| ACCGATCG | 0.0856 |

| Sequence | PBM E-score |
| --- | --- |
| CATGCACA | 0.0355 |
| GCGCATGA | -0.282 |
| ATCGCACA | 0.0222 |
| ACCTACGT | -0.0888 |
| CAACCCTG | -0.163 |
| CTACGAAG | -0.207 |
| GGGACTTA | -0.0858 |
| CAATGTTC | -0.00988 |
| AGCATCCG | -0.0507 |
| ATGCTCTG | -0.197 |
| CCTCTCGA | -0.303 |
| ACGGCGCC | -0.262 |
| GGATTGTA | 0.128 |
| AACGTGGG | -0.302 |
| TCCGATAA | 0.387 |
| AGTGGATA | 0.0737 |
| GAGTATGA | 0.114 |
| ACTATTGA | 0.209 |
| TGCACTAA | 0.148 |
| CGGGGGAG | -0.258 |
| AGCACATC | 0.0169 |
| AGATTCGG | 0.201 |
| GACGGATA | 0.0131 |
| ATCGCTTA | -0.138 |
| GTCGTTAA | 0.0288 |

| Sequence | PBM E-score |
| --- | --- |
| CATTATGA | 0.0195 |
| CACTAGTG | 0.0135 |
| AGCCCCTC | -0.199 |
| CCCAAAAC | 0.0566 |
| CCCCTACG | -0.358 |
| CGCACTAC | -0.148 |
| CCAGCTTC | -0.137 |
| CAAGGATA | 0.0528 |
| ACCACTTG | -0.0333 |
| CACGGTAG | -0.103 |
| TAATTATA | 0.349 |
| CTGAATAA | 0.165 |
| GGCGAAGA | -0.0451 |
| AGACGGGG | -0.082 |
| ATAACCCC | -0.0245 |
| CCGTGTAC | 0.147 |
| CAGTACTA | 0.0282 |
| ATCGGGGC | -0.147 |
| ACCAAGGA | 0.0457 |
| ACTCTCCC | -0.0254 |
| AATAGACT | -0.0415 |
| GAGCGATC | -0.128 |
